According to PubChem BioAssay (NCATS):
Where “and” joins values, the source holds several entries; their conditions need not be identical. Equal values may be shown once. Inconclusive results, whose numbers are uncertain, are shown with a selection of clear calls. For some assays here: Potencies of inconclusive entries are doubtful fits and often do not repeat. Some compounds were tested as several samples or in several runs, with calls that do not always agree. Calls of active or inactive are those of the source. Calls come from the whole dose curve; as a rule, active = well fitted curve in the direction sought with a large enough effect; inconclusive = small, poorly fitted or top-dose-only effect, or another doubt; inactive = no such curve, though single readings can be large; an effect the other way counts as inactive or inconclusive.

Legend:
[1] = biological target: Glutathione peroxidase 1 (Homo sapiens) (UniProt P07203); test: Primary qHTS Assay for Inhibitors of Recombinant Selenoprotein Glutathione Peroxidase 1 (GPX1) (AID 1845191); conditions: activity, negative = inhibition: at 48.8 µM (top of the series); note: nearly all actives have a fitted effect of over 65% in size
Outline: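 GR-coupled readout: NADPH consumption tracked by fluorescence, ex 340/em 450 nm, at t=0 and after 15 min at RT. Final mix 10 nM GPX1, 1 mM GSH, 0.5 mM CHP, 0.5 mM NADPH, 100 nM GR, 0.01% BSA, following 30 min enzyme–compound preincubation.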

[2] = biological target: Phospholipid hydroperoxide glutathione peroxidase GPX4 (Homo sapiens) (UniProt P36969); test: Primary qHTS Assay for Inhibitors of Recombinant Selenoprotein Glutathione Peroxidase 4 (GPX4) (AID 1845192); note: nearly all actives have a fitted effect of over 65% in size
Outline: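 Steps: GPX4 plus compound, 30 min RT; add GR/GSH/NADPH master mix; start with cumene hydroperoxide; read 340/450 nm fluorescence at 0 and 15 min. Finals were 200 nM GPX4, 1 mM GSH, 0.5 mM CHP, 0.5 mM NADPH, 100 nM GR.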

[3] = Drug repurposing screens with cells derived from glioblastoma tumor samples (AID 1345199); conditions: GBM patient neurospheres viability, ATP luminescence, 48 h; Potency: tumour line A unless noted; activity, negative = cell killing: at 46 µM (top of the series), tumour line A unless noted; note: nearly all actives have a fitted effect of over 40% in size; for activity, negative = cell killing: % is set by controls: 0 for no effect and ±100 for the full control effect
Outline: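 Primary testing used CD133+ neurospheres from four GBM patients, seven concentrations, 48 h exposure and ATP-based viability; confirmation added three slower-growing patient lines.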

[4] = qHTS of pediatric cancer cell lines to identify multiple opportunities for drug repurposing: Primary screen for SK-N-SH cells (AID 1347098); conditions: SK-N-SH viability, CellTiter-Glo luminescence, 48 h; activity change, negative = cytotoxic: at 57 µM (top of the series); note: nearly all actives have a fitted effect of over 65% in size
Outline: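 Cells (500-1,000/well) rested 5 h, then received compounds for 48 h; metabolically active cells were measured by CellTiter-Glo luminescence. Final concentrations spanned up to 46 µM (MIPE, 11-point) or 0.59 nM-46 µM (NPC, 8-point) in primary screens, 11-point in follow-ups.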

[5] = qHTS of pediatric cancer cell lines to identify multiple opportunities for drug repurposing: Primary screen for RD cells (AID 1347104); note: nearly all actives have a fitted effect of over 55% in size
Outline: (§1)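 Following a 5-hour attachment period, cells at 500-1,000/well received compounds and were cultured for 48 hours. CellTiter-Glo was added and luminescence read to estimate viable, metabolically active cells.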

[6] = tested on: Zika virus NS2B-NS3 protease; test: Primary screen GU AMC qHTS for Zika virus inhibitors (AID 1347154); note: nearly all actives have a fitted effect of over 70% in size
Outline: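 Unlinked Zika NS2B hydrophilic domain–NS3 protease complex at 25 nM in 10 mM Tris-HCl pH 8.0, 0.01% Tween 20, with an AMC peptide substrate. Fluorescence change (340/450 nm) over 15 min at room temperature, normalized to controls, fitted to 4-parameter Hill.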

[7] = qHTS of pediatric cancer cell lines to identify multiple opportunities for drug repurposing: Primary screen for Rh41 cells (AID 1347108); note: nearly all actives have a fitted effect of over 70% in size;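 for activity change, negative = cytotoxic: luminescence drop marks cytotoxic hits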
Outline: as §1

MKL-2 = test: qHTS assay to identify novel small-molecules to repurpose for Merkel cell carcinoma treatment (AID 1296009); conditions: MCC and control cell lines, CellTiter-Glo viability, 72 h; activity change, negative = cytotoxicity: at 46 µM (top of the series); note: nearly all actives have a fitted effect of over 60% in size
Outline: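 CellTiter-Glo luminescence after 72 hr compound exposure at 37 degree celsius gave cell viability. Libraries NPC and MIPE were run as 8- and 11-point dose responses; RLUs normalized to DMSO (negative) and no-cell (cytotoxicity) controls.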

[8] = qHTS to identify inhibitors of the type 1 interferon - major histocompatibility complex class I in skeletal muscle: primary screen against the NCATS Mechanism Interrogation Plate v5.0 (MIPE) Libary (AID 1347411); conditions: iHSKM cells + IFN-b, HiBiT-tagged MHC-I luminescence, 24 h; activity change, negative = inhibition: at 45.8 µM (top of the series); note: nearly all actives have a fitted effect of over 65% in size;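 for activity change, negative = inhibition: plate controls were vehicle for no effect and reference inhibitor for full effect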
Outline: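 IFN-beta-driven (4 ng/ml) HLA-B-HiBit expression in CRISPR-tagged C25cl48 myoblasts; compounds 11-pt, 1:3, max 46 uM, 24 hr exposure; lytic NanoLuc complementation luminescence.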

[9] = biological target: Calcium and integrin-binding protein 1 (Homo sapiens) (UniProt Q99828); test: Primary qHTS for Identification of Calcium Integrin Binding Protein 1 (CIB1) Competitor (AID 1508620);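 for activity change, negative = inhibition: GST tagged CIB1 binding a fluorescein labelled alphaIIb integrin peptide tracer; top concentration of the series differs between compounds; % is set by controls: 0 for no effect and ±100 for the full control effect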
Outline: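 Fluorescence polarization competition: GST-tagged CIB1 (1 uM final) preincubated with compound 15 min at room temperature, then FITC-labelled alphaIIb peptide (100 nM final) added. After 15 min at room temperature, polarization read at Ex 480/Em 540.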

[10] = qHTS of pediatric cancer cell lines to identify multiple opportunities for drug repurposing: Primary screen for DAOY cells (AID 1347090); conditions: DAOY medulloblastoma viability, CellTiter-Glo luminescence, 48 h; activity change, negative = cytotoxic: at 46 µM (top of the series); note: nearly all actives have a fitted effect of over 55% in size
Outline: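 Viability measured as metabolically active cells via CellTiter-Glo luminescence following 48 hours of compound exposure, 11-point dilutions in confirmatory testing. 500-1,000 cells/well plated 5 hours before dosing; controls were DMSO and 2.3 µM bortezomib.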

[11] = qHTS of pediatric cancer cell lines to identify multiple opportunities for drug repurposing: Primary screen for U-2 OS cells (AID 1347096); note: nearly all actives have a fitted effect of over 50% in size;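 for activity change, negative = cytotoxic: plate controls were DMSO wells for no effect and bortezomib positive control wells for full effect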
Outline: (§2)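 Viability after 48 h compound treatment at 37C, 500-1,000 cells/well, read as ATP luminescence with CellTiter-Glo. Primary screens used 11-point (MIPE, 0.78 nM-46 µM) or 8-point (NPC, 0.59 nM-46 µM) final concentrations; follow-up screens used 11-point dilutions.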

[12] = qHTS of pediatric cancer cell lines to identify multiple opportunities for drug repurposing: Confirmatory screen for Rh30 cells (AID 1347126); conditions: Rh30 rhabdomyosarcoma cell viability; activity change, negative = cytotoxic: at 45.9 µM (top of the series); note: nearly all actives have a fitted effect of over 55% in size
Outline: as §2

[13] = NS1 protein of Zika virus - qHTS assay to identify small molecule inhibitors in human HEK 293 cells (AID 1347053); note: nearly all actives have a fitted effect of over 55% in size;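 for activity change, negative = inhibition: plate controls were infected untreated cells for no effect and uninfected cells for full effect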
Outline: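 Read-out is a two-antibody TR-FRET for ZIKV NS1, normalized between uninfected cells and infected cells. Compound added 1 h before MR766 infection at MOI 0.5; human HEK 293 cells incubated 24 h, 37 C.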

[14] = qHTS of pediatric cancer cell lines to identify multiple opportunities for drug repurposing: Primary screen for TC32 cells (AID 1347089); note: nearly all actives have a fitted effect of over 60% in size
Outline: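 In the primary qHTS, MIPE compounds were tested at 11 concentrations (0.78 nM to 46 µM) and NPC compounds at 8 (0.59 nM to 46 µM) on TC32 cells for 48 h. CellTiter-Glo luminescence gave viability.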

[15] = qHTS of pediatric cancer cell lines to identify multiple opportunities for drug repurposing: Primary screen for LAN-5 cells (AID 1347100)
Outline: as §2

[16] = qHTS of pediatric cancer cell lines to identify multiple opportunities for drug repurposing: Primary screen for Rh30 cells (AID 1347107); note: nearly all actives have a fitted effect of over 75% in size
Outline: as §2

[17] = Quantitative High-Throughput drug screen in 47 multiple myeloma cell lines against the NCATS MIPE library collection: JIM1_ECACC cell viability assay (AID 1918964)
Outline: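 We plated 500 myeloma cells per well, pinned in MIPE 4.0 compounds, and incubated for 48 hours at 37C. ATP was then quantified with CellTiter-Glo, with DMSO and media-only wells defining 100% and 0%.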

[18] = biological target: Luciferin 4-monooxygenase (Photinus pyralis) (UniProt P08659); test: Primary firefly luciferase (FLuc) qHTS assay for identification of artifact compounds. (AID 1845220); note: nearly all actives have a fitted effect of over 60% in size
Outline: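 D-luciferin and ATP (10 uM each, final) in Tris acetate buffer pH 7.6 were incubated with compounds for 15 min at room temperature. The reaction was started with 10 nM Photinus pyralis luciferase and luminescence read after 5 min. Percent inhibition was fitted to a 4-parameter Hill equation.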

[19] = qHTS assay to identify inhibitors of the type 1 interferon - major histocompatibility complex class I in skeletal muscle: Counter screen cell viability and HiBit confirmation (AID 1347412); conditions: iHSKM muscle cells + IFN-b, HiBiT or CellTiter-Glo, 24 h; note: nearly all actives have a fitted effect of over 60% in size
Outline: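 Duplicate plates, pinned identically: one read for HiBiT-tagged endogenous HLA-B luminescence, the other for ATP-content viability via CellTiter Glo. Cells were genome-engineered human myoblasts given 4 ng/ml IFN-b; compounds 12-pt, 1:3 from 46 uM final; 24 hr exposure.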
Potency is the fitted concentration of half-maximal effect; tags give direction and shape of the fitted curve.

UniProt P07203, sequence (P07203 whole entry, looked up): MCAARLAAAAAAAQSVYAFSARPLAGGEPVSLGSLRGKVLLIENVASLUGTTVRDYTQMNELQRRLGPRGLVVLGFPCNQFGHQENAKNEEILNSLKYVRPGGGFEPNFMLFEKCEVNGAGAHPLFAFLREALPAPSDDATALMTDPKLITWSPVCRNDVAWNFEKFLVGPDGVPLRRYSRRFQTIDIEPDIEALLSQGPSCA
UniProt Q99828, sequence (Q99828 whole entry, looked up): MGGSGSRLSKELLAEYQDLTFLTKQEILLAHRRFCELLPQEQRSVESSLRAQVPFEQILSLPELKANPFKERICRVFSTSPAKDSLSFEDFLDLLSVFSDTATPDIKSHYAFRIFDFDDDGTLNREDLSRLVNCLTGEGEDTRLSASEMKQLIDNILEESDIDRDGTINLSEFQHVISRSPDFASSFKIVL
UniProt P36969, sequence (P36969 whole entry, looked up): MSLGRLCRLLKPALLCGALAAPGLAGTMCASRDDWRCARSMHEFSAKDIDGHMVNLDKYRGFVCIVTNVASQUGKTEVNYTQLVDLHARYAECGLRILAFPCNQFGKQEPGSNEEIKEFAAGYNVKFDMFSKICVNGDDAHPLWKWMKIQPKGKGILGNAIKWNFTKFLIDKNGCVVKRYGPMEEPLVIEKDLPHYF

## CC/C=C(\C(=O)N[C@@H]1C(=O)N2C(C(=O)OCOC(=O)C(C)(C)C)=C(COC(N)=O)CS[C@H]12)c1csc(N)n1
[1]
  Potency: active: 9.04 µM
[2]
  Potency: active: 11.2 µM
[3]
  Potency: active: 17.8 µM and inconclusive: 1.12 µM [inhibitor, full curve]

## O=C(O)CCC(=O)OC[C@@H](NC(=O)C(Cl)Cl)[C@H](O)c1ccc([N+](=O)[O-])cc1
[3]
  activity, negative = cell killing: inconclusive: -31.5% [inhibitor]

## CNCCCN1c2ccccc2CCc2ccccc21
[4]
  Potency: active: 30.7 µM
[5]
  Potency: inconclusive: 26.6 µM [cytotoxic, single point]

## CC(C)(O)c1ccccc1CC[C@@H](SCC1(CC(=O)O)CC1)c1cccc(/C=C/c2ccc3ccc(Cl)cc3n2)c1
[6]
  Potency: inconclusive: 17.8 µM [inhibitor, partial curve]
[2]
  Potency: inconclusive: 32.1 µM [inhibitor, single point]
[3]
  Potency: inconclusive: 25.1 µM [inhibitor, partial curve, poor fit]

## CC(CC1c2ccccc2CCc2ccccc21)CN(C)C (configuration not stated)
[4]
  Potency: inconclusive: 38.6 µM [cytotoxic, single point]
[5]
  Potency: inconclusive: 29.9 µM [cytotoxic, single point]
[7]
  Potency: inactive
MKL-2
  Potency: inconclusive: 16.8 µM [inhibitor, single point]

## COc1cc(OC)c2c(=O)[nH]c(-c3cc(C)c(OCCO)c(C)c3)nc2c1
[8]
  Potency: inactive

## Cc1cc2occ(CN(C)CCN(C)Cc3cn(-c4cccc(C(F)(F)F)c4)c4ccccc34)c(=O)c2cc1C
[9]
  Potency: inconclusive: 79.4 µM [inhibitor, partial curve, poor fit]
[1]
  Potency: inconclusive: 11.4 µM [inhibitor, partial curve, poor fit]

## COc1c(C)c2c(c(O)c1C/C=C(\C)CCC(=O)OCCN1CCOCC1)C(=O)OC2
[10]
  Potency: inconclusive: 1.06 µM [cytotoxic, full curve, poor fit]
[11]
  Potency: inconclusive: 1.33 µM [cytotoxic, full curve]
[4]
  Potency: inconclusive: 1.22 µM [cytotoxic, full curve]
[12]
  Potency: inconclusive: 3.69 µM [cytotoxic, single point]
[6]
  Potency: inconclusive: 28.2 µM [inhibitor, partial curve]
[8]
  activity change, negative = inhibition: inconclusive: -34.9% [inhibitor]

## CCc1ccccc1OC[C@@H](O)CN[C@H]1CCCc2ccccc21
[9]
  Potency: inactive

## CCCCCCCCc1ccc(CCC(N)(CO)CO)cc1
[13]
  Potency: active: 9.35 µM
[14]
  Potency: inconclusive: 14.7 µM [cytotoxic, partial curve, poor fit]
[10]
  Potency: inconclusive: 23.5 µM [cytotoxic, single point]
[11]
  Potency: inconclusive: 23.5 µM [cytotoxic, single point]
[4]
  Potency: active: 34.1 µM
[15]
  Potency: active: 26.4 µM
[16]
  Potency: active: 18.7 µM
[8]
  Potency: inconclusive: 23.4 µM [inhibitor, partial curve, poor fit]
[17]
  Potency: active: 5.9 µM

## CC(=O)OC1CCC2(C)C(CCC3(C)C2CC=C2C4C(C)C(C)CCC4(C)CCC23C)C1(C)C(=O)O (configuration not stated)
[18]
  Potency: inconclusive: 10.4 µM [inhibitor, partial curve, poor fit]

## CCC1=C[C@@H]2CN(C1)Cc1c([nH]c3ccccc13)[C@@](C(=O)OC)(c1cc3c(cc1OC)N(C)[C@H]1[C@@](O)(C(=O)OC)[C@H](OC(C)=O)[C@]4(CC)C=CCN5CC[C@]31[C@@H]54)C2
[13]
  Potency: inconclusive: 12.6 µM [inhibitor, single point]
[10]
  Potency: active: 0.0531 µM
[11]
  Potency: inconclusive: 0.266 µM [cytotoxic, full curve, poor fit]
[4]
  Potency: inconclusive: 17.2 µM [cytotoxic, partial curve, poor fit]
[5]
  Potency: inconclusive: 0.0119 µM [cytotoxic, full curve, poor fit]
[7]
  Potency: inconclusive: 0.0376 µM [cytotoxic, full curve]
[12]
  Potency: inconclusive: 26.1 µM [cytotoxic, partial curve, poor fit]
MKL-2
  Potency: active: 0.0188 µM
[19]; HiBiT
  Potency: inconclusive: 0.0443 µM [inhibitor, full curve]
[19]; Viability
  Potency: inconclusive: 0.157 µM [cytotoxic, full curve]

## O=C(CCCN1CCC(O)(c2ccc(Br)cc2)CC1)c1ccc(F)cc1
[13]
  Potency: inactive
[11]
  Potency: inactive
[12]
  Potency: inconclusive: 0.0015 µM [rising, full curve, poor fit]
[3]
  Potency: active: 3.55 µM
